Laboratory results reported in the supplement of paper PMC10338343.
± gives the standard deviation. The entries are a selection whose mix differs from that of the whole data set.

Tested on: MIWI (PIWIL1) piRISC loaded with L1MC piRNA (30 nt)
Test: pre-steady-state target cleavage rate (min^-1); MIWI and MILI are mouse PIWI proteins and EfPiwi is from a freshwater sponge; tags in brackets are library labels; higher = faster piRNA-guided slicing of the target
Conditions: guide: L1MC piRNA 5'p-UAACUAAAUACUAUGCAAGCUGUAGGUCCU
Procedure, shortened: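 A transcribed, DNA-blocked target RNA library (0.1 nM) and 1 nM active affinity-purified piRISC bearing one synthetic guide were incubated in HEPES–potassium acetate buffer at 33 °C for 0–8 or 0–960 min, either with or without 500 nM GTSF1 partner protein. Uncleaved targets were sequenced, normalised to depth and to weakly complementary targets, and pooled over three trials, with k3 capped at 0.0001 min^-1. The pre-steady-state cleavage rate was derived with a burst-and-steady-state fit.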

[1] = auxiliary factor: 500 nM mouse GTSF1
[2] = auxiliary factor: none (no GTSF1)

Sequence | pre-steady-state target cleavage rate [1] | pre-steady-state target cleavage rate [2]
UCCUGCUACAGCUUGCAUAGUUUUUAGUUA | 0.307 ± 0.023 | 0.0223 ± 0.0048
UGGACCUACAGCUUGCAUAGUUAUUAGUUA | 0.146 ± 0.013 | 0.0145 ± 0.0034
UGGUCCUACAGGUUGCAUAGUAUUUAGUUA | 0.758 ± 0.055 | 0.0377 ± 0.0066
UCGAGCUACAGCUUGCAUAGUAUUUAGUAA | 1.08 ± 0.082 | 0.0348 ± 0.0066
UCCUCCUACAGCUUGCAUAGUAUUAACUUA | 0.24 ± 0.036 | 0.0062 ± 0.0024
AGGACCUACUGCUUGCAUAGUAUUUAGUUA | 1.21 ± 0.049 | 0.0777 ± 0.012
UGGACCUACAGCUUGCAUAGUAUUGUAGUUA | 0.541 ± 0.041 | 0.0341 ± 0.007
UCCUGCUACAGCUUGCAUAGAAUUAAGUUA | 0.197 ± 0.026 | 0.00859 ± 0.0031
UCCUGGAUGUCCCUUGCAUAGUAUUUAGUUA | 0.131 ± 0.026 | 0.0116 ± 0.0034
UCCUGGUACAGCUUGCAUAGUAUGUUAGUUA | 0.373 ± 0.042 | 0.00863 ± 0.0037
UCGUCCUACAGCUUGCAUAGUAUUUAGUUA | 1.42 ± 0.041 | 0.0638 ± 0.0093
UCCUCCUACAGCUUGCAUUGAAUUUAGUUA | 0.183 ± 0.018 | 0.00617 ± 0.0025
UGGAGGUACAGCUUGCAUAGUAUUUACAAA | 0.166 ± 0.026 | 0.00502 ± 0.0022
AGGACCUAGUGCUUGCAUAGUAUUUACAAA | 0.0539 ± 0.011 | 0.00467 ± 0.0017
UCCUGGAUGAGCUUGCAUAGUAUUUGUUA | 0.041 ± 0.011 | 0.00336 ± 0.0031
UCCUGGAACAGGUUGCUUAGUAUUUAGUUA | 1.03 ± 0.065 | 0.0105 ± 0.0024
UCCUGGAACUCCUUGCAUAGUAUUUAGUUA | 0.46 ± 0.048 | 0.00821 ± 0.0033
UCGACCUACAGCUUGGAUAGUUUUUAGUUA | 0.384 ± 0.021 | 0.0246 ± 0.0064
UCCAGCUACAGCUUGCAUACUAUUUAGUUA | 0.412 ± 0.021 | 0.0316 ± 0.0051
UCCUGGAUCAGCUUGCAUAGUUUUUUGUUA | 0.148 ± 0.014 | 0.0202 ± 0.0053
UGGACCUACAGCUUGCAUAGUAUUUUGUAA | 0.272 ± 0.034 | 0.0253 ± 0.0056
UCCUGGAUCAGCUUGCAAGUAUUUAGUUA | 0.0233 ± 0.0057 | 0.00599 ± 0.0022
UCCUGGAACAGCUUGCAUAGUAUUAAGUAA | 0.207 ± 0.034 | 0.00983 ± 0.0037
UCCUGGAUGUGCUUGCAAAGUAUUUAGUUA | 0.175 ± 0.016 | 0.0227 ± 0.0059
UCCUCGUACAGCUUGCAUAGAAUUUAGUUA | 0.307 ± 0.021 | 0.0271 ± 0.0073
UCCUGGAUCAGCUUGCAUAAUAUUUAGUUA | 0.472 ± 0.035 | 0.0283 ± 0.0062
UCCUGCUACAGCUUGGAAAGUAUUUAGUUA | 0.903 ± 0.053 | 0.00754 ± 0.0024

Sequence | pre-steady-state target cleavage rate [1] | pre-steady-state target cleavage rate [2]
UCCUGGAUGUGCUUGCAUAGAAUUUAGAUA | 0.0127 ± 0.0058 | 0.00393 ± 0.0028
UCGUCCUACAGCUUGCAUAGAAUUUAGUUA | 0.416 ± 0.024 | 0.0191 ± 0.0046
UCCUGGAUGACCUUGCAUAGUAUUUACAAA | 0.014 ± 0.0052 | 0.00383 ± 0.0034
UCCUGGAUCAGCUAGCAUAGUAAUUAGUUA | 0.239 ± 0.023 | 0.00493 ± 0.0021
UCGACCUACUGCUUGCAUAGAAUUUAGUUA | 0.394 ± 0.024 | 0.0169 ± 0.0049
UCCUGGAAGUGCUUGCAUAGUAUUUAGUAA | 0.225 ± 0.03 | 0.0148 ± 0.0051
AGGACCUACAGCUUGCAUAGUAUUCUAGUUA | 0.725 ± 0.071 | 0.0759 ± 0.018
UCGACGCUACAGCUUGCAUAGUAUUUAGUUA | 1.27 ± 0.063 | 0.094 ± 0.022
UCCUGGUACAGCUUGCAUAGUUUUUAGAAA | 0.0899 ± 0.033 | 0.00569 ± 0.0025
UCCACCUACAGCUUGCAUAGUAUUUUCUUA | 0.385 ± 0.053 | 0.0112 ± 0.0039
UCCACCUACAGCUUGCAAAGAAUUUAGUUA | 0.242 ± 0.029 | 0.00734 ± 0.0028
UCGACCAACACCUUGCAUAGUAUUUAGUUA | 1.17 ± 0.04 | 0.0468 ± 0.0081
UCCUCCUACAGCUAGCAUAGUAUUUUGUUA | 0.672 ± 0.034 | 0.00769 ± 0.0017
UGGACCUACAGCUUGCUUAGUAAUUAGUUA | 0.866 ± 0.063 | 0.0153 ± 0.005
UCCUCCAACAGCUUGCAUAGUAUUUAGAUA | 0.491 ± 0.042 | 0.0201 ± 0.0048
UCGACCUAGAGCAUGCAUAGUAUUUAGUUA | 0.802 ± 0.061 | 0.0225 ± 0.0038
UCCACCUACAGCUUGCUUAGUAUUUACUUA | 0.425 ± 0.044 | 0.0184 ± 0.0042
UCCUGGAUGAGCUUGCAUUGUAUUUAGAAA | 0.0343 ± 0.011 | 0.00382 ± 0.0027
AGGACCUUCAGCUUGCAUAGUAUUUACUUA | 0.358 ± 0.036 | 0.0371 ± 0.0065
UGGACCUACAGCUUGCAUAGUAUGUAGUUA | 0.332 ± 0.041 | 0.0171 ± 0.0041
UCCUCCACAGCUUGCAUAGUAUUUAGUUA | 0.736 ± 0.027 | 0.0534 ± 0.011
AGGACCUACAGCUUGCUUAGUAAUUAGUUA | 0.8 ± 0.058 | 0.0154 ± 0.0047
UCCUGGUACAGCUAGCAUAGUAUAUAGUUA | 0.357 ± 0.048 | 0.00724 ± 0.0035
UCCACCAACAGCUUGCAUAGUAUAUAGUUA | 0.547 ± 0.036 | 0.0205 ± 0.0046
UCCUGGUACGAGCUUGCAUAGUAUUUAGUUA | 0.398 ± 0.064 | 0.0234 ± 0.0059
UCCUGCUACAGCUUGCAUAGUAUAAAGUAA | 0.187 ± 0.025 | 0.00455 ± 0.0018
UCCUCCUACAGCUUGCAUAGUCAUUUAGUUA | 0.086 ± 0.027 | 0.00373 ± 0.0024

Sequence | pre-steady-state target cleavage rate [1] | pre-steady-state target cleavage rate [2]
UGGACCUAGUCCUUGCAUAGUAUUUAGUUA | 0.522 ± 0.064 | 0.0127 ± 0.0036
UCCUGCUUCAGCUUGCAUAGUAUUUACAAA | 0.435 ± 0.066 | 0.00357 ± 0.0025
UCCUGGAACUGCUUGCAUAGUAUUUACAAA | 0.137 ± 0.022 | 0.00377 ± 0.0034
UCCUCCUACACCUUGCAUAGUAUUUAGAUA | 0.338 ± 0.064 | 0.0147 ± 0.0038
UCCUGGAUCAGGUUGCAUAGUUUUUAGUUA | 0.0569 ± 0.0093 | 0.00915 ± 0.0026
UCCUGGUACAGCAUUGCAUAGUAUUUAGUUA | 0.494 ± 0.057 | 0.0223 ± 0.0052
UCCUGGAAGAGCUUGCAUAGUAUUUUGUUA | 0.704 ± 0.076 | 0.0231 ± 0.0062
UCCUGGAACAGCUUGGAUACUAUUUAGUUA | 0.28 ± 0.033 | 0.0144 ± 0.004
UCCUCCAACAGCUUGCAUUGUAUUUAGUUA | 0.976 ± 0.031 | 0.0321 ± 0.0066
AGGUCCUACAGCUUGCAUAGUAUUUAGUUA | 1.43 ± 0.054 | 0.111 ± 0.019
UCCUGGAUGUGCUUGCAAAGUAUUUACUUA | 0.0584 ± 0.013 | 0.0142 ± 0.0044
UCCACCUACAGCUUGCAUAGUAUUUAGUGA | 0.465 ± 0.08 | 0.0254 ± 0.006
UCCUCCUUGAGCUUGCAUAGUAUUUAGUAA | 0.621 ± 0.079 | 0.0166 ± 0.0044
UCCUGGAACAGCUUGCAUAGUAAAUAGUUA | 0.36 ± 0.035 | 0.00869 ± 0.0044
UCGACCUACAGCUUGCAUUGUAUUUUGUUA | 0.665 ± 0.031 | 0.0194 ± 0.0048
UCCUCCUACAGCUUGCAUAGUAUUCAGUUA | 0.652 ± 0.048 | 0.0195 ± 0.0043
UCCUUCUACAGCUUGCAUAGUAUUUAGUUA | 1.02 ± 0.033 | 0.0527 ± 0.0083
UCGACCUACAGCAUGCAUAGUAUUUACUUA | 0.545 ± 0.046 | 0.0246 ± 0.0054
AGGACCUAGAGCUUGCAUAGUAAUUAGUUA | 0.747 ± 0.047 | 0.0277 ± 0.0076
UCGACCUACAGCUUGCAUAGAAUUUAGAUA | 0.314 ± 0.044 | 0.0119 ± 0.0039
AGGACCUACUGCUUGCAUAGUAUUUACAAA | 0.234 ± 0.04 | 0.0115 ± 0.0033
UCCACCUACAGCUUGCAUAGUAAUUAGAUA | 0.242 ± 0.037 | 0.00588 ± 0.0029
UCGACCUACUGCUUGCAUAGUAAUUAGUUA | 0.847 ± 0.031 | 0.0259 ± 0.0058
UCCUGGAACAGCUUGCAUAGUAUUUAGUUUA | 0.927 ± 0.049 | 0.0571 ± 0.012
AGGACCUACUGCUUGCAUAGUAUUUAGAUA | 0.471 ± 0.048 | 0.0411 ± 0.0086
UCCUGGAUGAGCUUGCAUAGUUAUUAGUUA | 0.037 ± 0.01 | 0.0092 ± 0.0039
